Measured values from PubChem BioAssay (NCATS).
“And” between values parts separate entries of the source, which are not always exact repeats. Equal values may be shown once. The shares of active, inactive and inconclusive entries below differ from those in the screen. For part of these data: Potencies of inconclusive entries are doubtful fits and often do not repeat. The source made the active and inactive calls. Unless noted, calls come from the whole dose curve; as a rule, active = well fitted curve in the direction sought with a large enough effect; inconclusive = small, poorly fitted or top-dose-only effect, or another doubt; inactive = no such curve, though single readings can be large; an effect the other way counts as inactive or inconclusive.

Experiments:
[1] = Primary qHTS for small molecule stabilizers of the endoplasmic reticulum resident proteome: Secreted ER Calcium Modulated Protein (SERCaMP) assay (AID 1508630); details: SH-SY5Y GLuc-SERCaMP (Gaussia luciferase released on ER calcium loss) secretion, thapsigargin, luminescence; series mostly up to 38.4 µM
In short: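 The SH-SY5Y reporter protocol was run at 3 concentrations up to 38.3 uM (primary) or 11 concentrations (follow-up): 16 h compound, 100 nM thapsigargin for 4 h, then extracellular luciferase luminescence.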

HeLa = experiment: Primary qHTS to identify gynecologic anti-cancer compounds using libraries of approved drugs and bioactive compounds (AID 1345084); details: Gynecologic cancer cell panel viability, ATPlite luminescence, 48 h; series mostly up to 57.5 µM; note: nearly all actives have a fitted effect of over 55% in size
In short: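 Cells, 1,000 per well, were allowed to settle for 16 h at 37 C before compound addition. Five concentrations were tested for 48 h, and viability was read by ATPlite luminescence after 15 min at room temperature.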

[2] = tested on: Zika virus NS2B-NS3 protease (unlinked complex); experiment: Primary screen GU Rhodamine qHTS for Zika virus inhibitors: Unlinked NS2B-NS3 protease assay (AID 1347159); note: nearly all actives have a fitted effect of over 60% in size
In short: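 Percent inhibition came from the 15-min rise in Rhodamine110 fluorescence (1.5 microM substrate, ~15% conversion), normalized to no-inhibitor and no-enzyme wells and Hill-fitted. Unlinked protease, 25 nM, pH 8.0 Tris buffer; compounds up to 114 microM, 15-min preincubation.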

[3] = qHTS of pediatric cancer cell lines to identify multiple opportunities for drug repurposing: Primary screen for SK-N-MC cells (AID 1347093); details: SK-N-MC viability, CellTiter-Glo luminescence, 48 h; activity change, negative = cytotoxic: at 46 µM (top of the series)
In short: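 Metabolically active cells were quantified by ATP-dependent luminescence (CellTiter-Glo, 15 min at room temperature) following 48 h treatment. Cells had been plated at 500-1,000 per well and settled for 5 h beforehand.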

[4] = qHTS of pediatric cancer cell lines to identify multiple opportunities for drug repurposing: Primary screen for Saos-2 cells (AID 1347097); details: Saos-2 viability, CellTiter-Glo ATP luminescence, 48 h; activity change, negative = cytotoxic: at 46 µM (top of the series); note: nearly all actives have a fitted effect of over 40% in size
In short: (§1)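 ATP-based luminescence (CellTiter-Glo) quantifies viability after a 48-hour exposure. Compounds are dosed across 8 or 11 final concentrations; DMSO and 2.3 µM bortezomib serve as controls.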

[5] = qHTS of pediatric cancer cell lines to identify multiple opportunities for drug repurposing: Primary screen for SK-N-SH cells (AID 1347098); details: SK-N-SH viability, CellTiter-Glo luminescence, 48 h; activity change, negative = cytotoxic: at 57 µM (top of the series); note: nearly all actives have a fitted effect of over 65% in size;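 for activity change, negative = cytotoxic: DMSO served as neutral control and bortezomib at 2.3 µM as positive control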
In short: (§2)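 Cells (500-1,000/well) rested 5 h, then received compounds for 48 h; metabolically active cells were measured by CellTiter-Glo luminescence. Final concentrations spanned up to 46 µM (MIPE, 11-point) or 0.59 nM-46 µM (NPC, 8-point) in primary screens, 11-point in follow-ups.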

[6] = qHTS of pediatric cancer cell lines to identify multiple opportunities for drug repurposing: Primary screen for NB1643 cells (AID 1347099); note: nearly all actives have a fitted effect of over 50% in size
In short: as §1

[7] = qHTS of pediatric cancer cell lines to identify multiple opportunities for drug repurposing: Primary screen for BT-12 cells (AID 1347101); note: nearly all actives have a fitted effect of over 25% in size
In short: as §2

[8] = molecular target: Cytochrome P450 3A4 (Homo sapiens) (UniProt P08684); experiment: Cytochrome P450 family 3 subfamily A member 4 (CYP3A4) small molecule antagonists: luciferase qHTS assay (AID 1645841; active = well fitted curve in the direction sought with a large enough effect in the repeat runs; inconclusive = weak or mixed curves; inactive = no such curve, though single readings can be large; an effect the other way counts as inactive or inconclusive; note: nearly all actives have a fitted effect of over 45% in size)
Sequence of UniProt P08684 (P08684 whole entry, looked up): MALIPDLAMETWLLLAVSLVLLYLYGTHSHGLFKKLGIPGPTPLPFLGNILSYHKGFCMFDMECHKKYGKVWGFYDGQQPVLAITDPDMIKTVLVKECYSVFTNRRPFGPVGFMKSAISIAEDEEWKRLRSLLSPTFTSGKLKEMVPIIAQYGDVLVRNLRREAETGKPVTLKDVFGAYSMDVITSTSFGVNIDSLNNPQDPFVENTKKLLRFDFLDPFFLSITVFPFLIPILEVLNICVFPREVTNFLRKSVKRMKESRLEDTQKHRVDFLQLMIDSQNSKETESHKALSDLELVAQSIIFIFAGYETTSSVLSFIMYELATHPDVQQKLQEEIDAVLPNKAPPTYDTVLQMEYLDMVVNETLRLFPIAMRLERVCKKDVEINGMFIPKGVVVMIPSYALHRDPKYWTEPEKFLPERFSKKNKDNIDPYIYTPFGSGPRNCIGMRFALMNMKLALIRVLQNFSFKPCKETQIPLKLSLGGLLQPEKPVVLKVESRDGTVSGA
In short: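 P450-Glo CYP3A4 enzyme with proluciferin substrate preincubated 10 min with compound at room temperature, then NADPH regeneration 1 h. Luciferin detection reagent added for 20 min; luminescence recorded. Ketoconazole positive control.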

[9] = molecular target: Cytochrome P450 2C9 (Homo sapiens) (UniProt P11712); experiment: Cytochrome P450 family 2 subfamily C member 9 (CYP2C9) small molecule antagonists: luciferase biochemical (cell-free) qHTS assay (AID 1645842; active = well fitted curve in the direction sought with a large enough effect in the repeat runs; inconclusive = weak or mixed curves; inactive = no such curve, though single readings can be large; an effect the other way counts as inactive or inconclusive; note: nearly all actives have a fitted effect of over 55% in size)
Sequence of UniProt P11712 (P11712 whole entry, looked up): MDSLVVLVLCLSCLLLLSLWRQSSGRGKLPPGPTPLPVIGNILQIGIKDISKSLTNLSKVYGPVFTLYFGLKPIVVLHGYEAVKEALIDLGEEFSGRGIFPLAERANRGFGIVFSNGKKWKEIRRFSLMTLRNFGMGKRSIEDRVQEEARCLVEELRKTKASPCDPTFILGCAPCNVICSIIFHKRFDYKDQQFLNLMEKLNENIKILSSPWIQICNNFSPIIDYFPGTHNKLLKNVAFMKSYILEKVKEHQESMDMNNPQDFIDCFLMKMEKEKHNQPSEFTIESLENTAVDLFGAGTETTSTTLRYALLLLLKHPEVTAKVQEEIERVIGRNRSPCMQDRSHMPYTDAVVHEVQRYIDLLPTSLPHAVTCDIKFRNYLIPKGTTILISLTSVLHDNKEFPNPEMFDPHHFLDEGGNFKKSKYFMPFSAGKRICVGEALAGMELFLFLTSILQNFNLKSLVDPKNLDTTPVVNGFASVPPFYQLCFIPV
In short: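 P450-Glo CYP2C9 system: proluciferin substrate with enzyme in mix containing 0.4% BSA, 10 min at room temperature, then NADPH regeneration solution added and incubated 1 h at 37C. Detection reagent stopped reaction; luminescence read after 20 min as RLU.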

[10] = A High-Content qHTS Against Drug Library for the Identification of Small Molecules that Inhibit DYT1 Early Onset Primary Dystonia-Associated Cell Pathology (AID 1645839; calls by dose curve)
In short: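 Cells were seeded and left for 24 h, then dosed with compound alongside tetracycline induction of mutant EGFP-TorsinA. They were incubated for 48 h, fixed in 4% paraformaldehyde, permeabilized and imaged for mislocalization (%pathology) and cell count.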

[11] = molecular target: Cytochrome P450 2D6 (Homo sapiens) (UniProt P10635); experiment: Cytochrome P450 family 2 subfamily D member 6 (CYP2D6) small molecule antagonists: luciferase biochemical (cell-free) qHTS assay (AID 1645840; active = well fitted curve in the direction sought with a large enough effect in the repeat runs; inconclusive = weak or mixed curves; inactive = no such curve, though single readings can be large; an effect the other way counts as inactive or inconclusive; note: nearly all actives have a fitted effect of over 55% in size)
Sequence of UniProt P10635 (P10635 whole entry, looked up): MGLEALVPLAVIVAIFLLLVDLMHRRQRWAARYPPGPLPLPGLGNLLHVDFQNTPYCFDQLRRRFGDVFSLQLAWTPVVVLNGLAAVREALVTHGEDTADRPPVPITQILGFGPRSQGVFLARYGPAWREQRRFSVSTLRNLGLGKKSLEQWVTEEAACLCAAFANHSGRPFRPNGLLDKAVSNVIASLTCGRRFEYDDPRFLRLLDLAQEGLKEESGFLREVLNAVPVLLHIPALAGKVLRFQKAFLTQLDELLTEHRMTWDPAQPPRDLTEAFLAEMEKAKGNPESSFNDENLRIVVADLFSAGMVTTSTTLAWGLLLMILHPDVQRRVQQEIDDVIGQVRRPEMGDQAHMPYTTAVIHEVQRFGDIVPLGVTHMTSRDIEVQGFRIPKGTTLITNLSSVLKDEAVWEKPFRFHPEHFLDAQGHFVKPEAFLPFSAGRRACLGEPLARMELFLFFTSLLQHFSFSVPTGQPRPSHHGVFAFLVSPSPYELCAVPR
In short: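 P450-Glo CYP2D6 system: proluciferin substrate converted by enzyme to luciferin, read by luminescence proportional to activity. Enzyme-substrate mix with compound 10 min at room temperature, then NADPH regeneration 1 h before detection reagent.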

UISO = experiment: qHTS assay to identify novel small-molecules to repurpose for Merkel cell carcinoma treatment (AID 1296009); details: MCC and control cell lines, CellTiter-Glo viability, 72 h; activity change, negative = cytotoxicity: at 46 µM (top of the series); note: nearly all actives have a fitted effect of over 60% in size
In short: (§3)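 CellTiter-Glo luminescence after 72 hr compound exposure at 37 degree celsius gave cell viability. Libraries NPC and MIPE were run as 8- and 11-point dose responses; RLUs normalized to DMSO (negative) and no-cell (cytotoxicity) controls.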

[12] = qHTS of pediatric cancer cell lines to identify multiple opportunities for drug repurposing: Primary screen for SJ-GBM2 cells (AID 1347091)
In short: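 Viability measured as metabolically active cells via CellTiter-Glo luminescence following 48 hours of compound exposure, 11-point dilutions in confirmatory testing. 500-1,000 cells/well plated 5 hours before dosing; controls were DMSO and 2.3 µM bortezomib.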

[13] = qHTS of pediatric cancer cell lines to identify multiple opportunities for drug repurposing: Primary screen for OHS-50 cells (AID 1347103); note: nearly all actives have a fitted effect of over 40% in size
In short: as §2

MKL-2 = experiment: qHTS assay to identify novel small-molecules to repurpose for Merkel cell carcinoma treatment (AID 1296009); details: MCC and control cell lines, CellTiter-Glo viability, 72 h; activity change, negative = cytotoxicity: at 46 µM (top of the series); note: nearly all actives have a fitted effect of over 60% in size
In short: as §3

WaGa = experiment: as above; details: MCC and control cell lines, CellTiter-Glo viability, 72 h; series mostly up to 46 µM
In short: as §3

[14] = molecular target: Phospholipid hydroperoxide glutathione peroxidase GPX4 (Homo sapiens) (UniProt P36969); experiment: Primary qHTS Assay for Inhibitors of Recombinant Selenoprotein Glutathione Peroxidase 4 (GPX4) (AID 1845192); note: nearly all actives have a fitted effect of over 65% in size
Sequence of UniProt P36969 (P36969 whole entry, looked up): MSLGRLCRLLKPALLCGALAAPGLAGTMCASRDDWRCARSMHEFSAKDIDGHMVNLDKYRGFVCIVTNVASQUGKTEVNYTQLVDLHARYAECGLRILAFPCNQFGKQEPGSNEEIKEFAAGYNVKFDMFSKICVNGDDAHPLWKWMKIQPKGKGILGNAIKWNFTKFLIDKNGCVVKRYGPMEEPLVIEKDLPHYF
In short: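 Steps: GPX4 plus compound, 30 min RT; add GR/GSH/NADPH master mix; start with cumene hydroperoxide; read 340/450 nm fluorescence at 0 and 15 min. Finals were 200 nM GPX4, 1 mM GSH, 0.5 mM CHP, 0.5 mM NADPH, 100 nM GR.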

[15] = Primary redox qHTS assay for identification of artifact compounds. (AID 1845223)
In short: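 Redox-cycling detection via DTT (250 uM final) oxidation coupled to Amplex Red (25 uM)/HRP (250 mU/mL) in HBSS. 15 min preincubation plus 30 min after DTT, room temperature. Ex/Em 525/598 nm; 4-parameter Hill fit against DMSO and 10 uM DA3003.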

[16] = tested on: Zika virus NS2B-NS3 protease (linked construct); experiment: Primary screen NINDS Rhodamine qHTS for Zika virus inhibitors (AID 1347160); note: nearly all actives have a fitted effect of over 55% in size
In short: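 Rhodamine110-peptide cleavage (1.5 µM substrate) by 25 nM linked NS2B-NS3 enzyme at pH 8.0 (Tris, Tween 20), after 15 min RT preincubation with compounds; 15-min fluorescence change normalized to controls and Hill-fitted.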
Potency is the fitted concentration of half-maximal effect; tags give direction and shape of the fitted curve.

Q: Which results are given for Nc1ncnc2n[nH]c(Nc3ccc(F)cc3)c12?
A: Potency [1]: inconclusive: 316 nM [inhibitor, full curve]; Potency (HeLa): inconclusive: 39.8 µM [cytotoxic, single point]

Q: Which Potency [2] does the source give for C=C1C(=O)O[C@@H]2/C=C(\CO)CC/C=C(/C=O)C[C@@H](O)[C@@H]12 here?
A: inactive

Q: For CN(Cc1ccc(C(C)(C)C)cc1)Cc1cccc2ccccc12, which Potency [3] is on record?
A: inconclusive: 33.5 µM [cytotoxic, single point]

Q: And the Potency [4]?
A: inconclusive: 37.6 µM [cytotoxic, single point]

Q: And the Potency [5]?
A: inactive

Q: What about the Potency [6] of the same molecule?
A: inactive

Q: And the Potency [7]?
A: inactive

Q: And the Potency [8]?
A: inconclusive: 11 µM [falling, partial curve, poor fit]

Q: And the Potency [9]?
A: inconclusive: 24.5 µM [inhibitor, partial curve, poor fit]

Q: Which Potency [3] does the source give for COc1ccc(OC(=O)N(CC(=O)O)Cc2ccc(OCCc3nc(-c4ccccc4)oc3C)cc2)cc1 here?
A: inconclusive: 33.5 µM [cytotoxic, single point]

Q: And the Potency [4]?
A: inconclusive: 37.6 µM [cytotoxic, single point]

Q: What about the Potency [7] of the same molecule?
A: inactive

Q: What about the Potency [10] of the same molecule?
A: inconclusive: 15.8 µM [inhibitor, partial curve, poor fit]

Q: And the Potency [11]?
A: inconclusive: 27.5 µM [inhibitor, single point]

Q: And the Potency (UISO)?
A: inactive

Q: Which Potency (HeLa) does the source give for C=C1CC[C@@H]2[C@](C)(CO)[C@H](O)CC[C@@]2(C)[C@@H]1CC(=O)C1=CCOC1=O here?
A: inconclusive: 28.2 µM [cytotoxic, single point]

Q: What does the source list for CCC(C(=O)OCCN1CCOC(c2ccccc2)C1C)c1ccccc1 (configuration not stated)?
A: Potency [12]: inconclusive: 13.3 µM [cytotoxic, partial curve]; Potency [5]: inconclusive: 0.0034 µM [cytotoxic, full curve, poor fit]; Potency [7]: inconclusive: 15.5 µM [cytotoxic, partial curve]; Potency [13]: inconclusive: 19.5 µM [cytotoxic, single point]; Potency [1]: inconclusive: 12600 nM [inhibitor, single point]; Potency (UISO): inactive

Q: Which results are given for CN(C)CCCN1c2ccccc2Sc2ccccc21?
A: Potency [12]: inconclusive: 21.1 µM [cytotoxic, single point]; Potency [7]: inconclusive: 12.3 µM [cytotoxic, partial curve]; Potency [1]: inconclusive: 22.4 µM [inhibitor, partial curve, poor fit] and inconclusive: 11.2 µM [inhibitor, single point]; Potency [10]: inconclusive: 12.6 µM [inhibitor, partial curve, poor fit]; Potency (MKL-2): inconclusive: 23.7 µM [inhibitor, single point]; Potency (UISO): inconclusive: 21.1 µM [inhibitor, partial curve, poor fit]; Potency (WaGa): inconclusive: 16.8 µM [inhibitor, partial curve, poor fit]

Q: For Nc1nccn2c(C3CCC(C(=O)O)CC3)nc(-c3cc4cccc(Cl)c4[nH]3)c12 (configuration not stated), which Potency [2] is on record?
A: active: 25.1 µM

Q: And the Potency [9]?
A: inconclusive: 26.8 µM [inhibitor, partial curve, poor fit]

Q: And the Potency [14]?
A: inconclusive: 32.1 µM [inhibitor, partial curve, poor fit] and inconclusive: 25.5 µM [inhibitor, single point]

Q: What about the Potency [15] of the same molecule?
A: inconclusive: 6.7 µM [activator, partial curve]

Q: What about the Potency (HeLa) of the same molecule?
A: inconclusive: 8.91 µM [cytotoxic, partial curve]

Q: With COc1ccc(NC(=O)N2CCc3c2ccc2ccccc32)cc1N1CCN(C)CC1 as the molecule, how does the Potency [8] read?
A: inconclusive: 33.8 µM [falling, single point]

Q: What about the Potency [9] of the same molecule?
A: inconclusive: 37.9 µM [inhibitor, single point]

Q: And the Potency (HeLa)?
A: inactive

Q: What does the source list for COc1cc2c(cc1OC)C(=O)C(CC1CCN(Cc3ccccc3)CC1)C2 (configuration not stated)?
A: Potency [12]: inactive; Potency [5]: inconclusive: 17.2 µM [cytotoxic, single point]; Potency [6]: inconclusive: 7.5 µM [cytotoxic, partial curve, poor fit]; Potency [13]: inconclusive: 15.5 µM [cytotoxic, partial curve]; Potency [1]: inactive; Potency [10]: active: 12.6 µM; Potency [14]: inconclusive: 28.2 µM [inhibitor, partial curve, poor fit]; Potency (MKL-2): inconclusive: 10.6 µM [inhibitor, partial curve]; Potency (WaGa): inconclusive: 26.6 µM [inhibitor, single point]

Q: Which Potency [16] does the source give for O=C(O)/C=C/c1ccc(-c2ccc(O)c(C34CC5CC(CC(C5)C3)C4)c2)cc1 here?
A: active: 2.24 µM

Q: For CN(C)Cc1ccc(-c2cnn3c(-c4cccc(NC(=O)c5cccc(C(F)(F)F)c5)c4)ccnc23)cc1, which Potency [2] is on record?
A: inactive

Q: And the Potency [9]?
A: active: 7.56 µM

Q: Which results are given for CN1CCN(C2CCN(C(=O)Nc3cc(Oc4ccc(NC(=O)C5(C(=O)Nc6ccc(F)cc6)CC5)c(F)c4)ccn3)CC2)CC1?
A: Potency [11]: inconclusive: 6.74 µM [inhibitor, partial curve]; Potency [9]: inconclusive: 21.3 µM [inhibitor, single point]; Potency [15]: inconclusive: 4.23 µM [activator, single point]; Potency (HeLa): inactive

Q: Which results are given for C=C[C@@]1(C)CCC2C(=CCC3[C@]2(C)CCC[C@@]3(C)C(=O)O)C1 (some centres not stated)?
A: Potency [2]: active: 22.4 µM; Potency [16]: inconclusive: 7.94 µM [inhibitor, partial curve, poor fit]; Potency [15]: inconclusive: 3.77 µM [activator, full curve]
